# Reference: PubChem BioAssay AID504332 (National Center for Advancing Translational Sciences (NCATS), 2011)
# Out of some 350,000 compounds screened, about 31,000 (8.9%) were called active. Inconclusive results, whose numbers are uncertain, are shown with a selection of clear calls. Calls come from the whole dose curve; as a rule, active = well fitted inhibition curve with a large enough effect; inconclusive = small, poorly fitted or top-dose-only effect; inactive = no such curve, though single readings can be large or run the other way. A potency beside an inconclusive call is a rough fit, not a confirmed value.
# Molecular target: Histone-lysine N-methyltransferase EHMT2 (Homo sapiens) (UniProt Q96KQ7)
# UniProt Q96KQ7, sequence (Q96KQ7 whole entry, looked up): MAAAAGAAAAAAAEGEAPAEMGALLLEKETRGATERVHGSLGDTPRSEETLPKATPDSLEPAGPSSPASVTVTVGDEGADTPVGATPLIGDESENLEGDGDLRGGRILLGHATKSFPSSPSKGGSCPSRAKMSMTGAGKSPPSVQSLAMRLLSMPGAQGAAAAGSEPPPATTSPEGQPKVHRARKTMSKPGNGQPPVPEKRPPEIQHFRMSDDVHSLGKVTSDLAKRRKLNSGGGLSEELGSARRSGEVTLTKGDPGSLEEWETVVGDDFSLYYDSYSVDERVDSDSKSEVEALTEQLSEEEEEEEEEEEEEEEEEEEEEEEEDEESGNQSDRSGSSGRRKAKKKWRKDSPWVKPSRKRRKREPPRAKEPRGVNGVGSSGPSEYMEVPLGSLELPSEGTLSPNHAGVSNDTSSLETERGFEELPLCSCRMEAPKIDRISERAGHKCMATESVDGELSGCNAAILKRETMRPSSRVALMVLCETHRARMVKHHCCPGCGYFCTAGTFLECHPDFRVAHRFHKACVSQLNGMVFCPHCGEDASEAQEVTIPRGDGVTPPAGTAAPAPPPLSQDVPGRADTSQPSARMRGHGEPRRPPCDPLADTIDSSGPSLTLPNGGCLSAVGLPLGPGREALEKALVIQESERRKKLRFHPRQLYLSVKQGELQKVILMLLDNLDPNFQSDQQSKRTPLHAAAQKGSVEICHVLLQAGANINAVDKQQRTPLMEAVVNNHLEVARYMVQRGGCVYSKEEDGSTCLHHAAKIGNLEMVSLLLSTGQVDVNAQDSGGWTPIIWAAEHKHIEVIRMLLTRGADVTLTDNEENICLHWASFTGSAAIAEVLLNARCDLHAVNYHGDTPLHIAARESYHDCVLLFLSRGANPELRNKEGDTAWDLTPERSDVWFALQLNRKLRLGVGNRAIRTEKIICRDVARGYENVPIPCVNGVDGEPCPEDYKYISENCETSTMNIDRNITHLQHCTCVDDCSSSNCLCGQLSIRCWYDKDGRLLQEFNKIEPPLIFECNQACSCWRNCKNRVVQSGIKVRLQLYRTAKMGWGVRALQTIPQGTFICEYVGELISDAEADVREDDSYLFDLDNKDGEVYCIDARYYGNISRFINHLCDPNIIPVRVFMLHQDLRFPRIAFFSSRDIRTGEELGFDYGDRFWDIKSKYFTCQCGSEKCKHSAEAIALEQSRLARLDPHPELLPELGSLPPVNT
# Test: qHTS Assay for Inhibitors of Histone Lysine Methyltransferase G9a; note: nearly all actives have a fitted effect of over 75% in size
# Conditions: G9a H3K9 monomethylation, AlphaScreen, 2 h; activity, negative = inhibition: at 59 µM (top of the series) unless noted
# In short: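 Readings reflect AlphaScreen signal from monomethyl-H3K9 antibody detection. HMT at 20 nM; substrate b-H3K9 500 nM; cofactor SAM 20 uM; 2 h RT reaction; compounds tested as titrations in qHTS with 15 min preincubation.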
# % is set by controls: 0 for no effect and ±100 for the full control effect; potency is the fitted concentration of half-maximal effect; tags give direction and shape of the fitted curve.
Compound,Potency,"activity, negative = inhibition"
COc1ccc(-n2c(-c3ccc(Br)cc3)c[n+]3c2CCc2ccccc2-3)cc1,"inconclusive: 15.8 µM [inhibitor, single point]",
Cc1cc(=O)[nH]c2c(N=Nc3ccc(O)cc3)c(N)nn12,"inconclusive: 79.4 µM [inhibitor, partial curve, poor fit]",
O=C(/C=C/c1ccc(Cl)cc1Cl)c1cccnc1,active: 8.91 µM,
Cn1c(=O)c2c(-c3ccccc3)n(Cc3ccccn3)cc2n(C)c1=O,"inconclusive: 2.51 µM [inhibitor, partial curve, poor fit]",
Cc1cc(SCC(=O)N/N=C/c2ccc(O)c(O)c2)c(C)cc1Br,active: 25.1 µM,
CCc1ccccc1N1CSC2=C(C#N)C(c3cc(OC)c(OC)cc3OC)CC(=O)N2C1 (centres undefined),"inconclusive: 1.26 µM [inhibitor, full curve, poor fit]",
CC(C)(C)c1ccc(N/N=C(\C#N)S(=O)(=O)C(C)(C)C)cc1,,inactive: -22.2% [at 102 µM]
COc1ccccc1NC(=O)COc1ccccc1,"inconclusive: 89.1 µM [inhibitor, single point]",
CCCCN(CC)CCCNC(=O)Cn1ncc2c([nH]c3ccc(C)cc32)c1=O,,inactive: -32.3%
CCOc1ccc(OCCOCCN2CCOCC2)cc1,active: 2 µM,
CCOc1ccc(-n2c(CCc3ccccc3)n[nH]c2=S)cc1,"inconclusive: 7.94 µM [inhibitor, full curve]",
CSCCC(NS(=O)(=O)c1ccccc1F)C(=O)N1CCCCCCC1 (centres undefined),,inactive: 0.862% [at 102 µM]
Cn1c(CCC(=O)Nc2ccc(N3CCOCC3)cc2)nc(=O)c2ccccc21,,inconclusive: -56.9% [inhibitor]
Cc1cc(-c2ccccc2)c2nncn2n1,,inconclusive: -64.9% [inhibitor] [at 12.7 µM]
C(=N\Nc1ccc(-n2ccnc2)nn1)/c1ccccc1,,inactive: -2.74%
CC(=O)c1ccc(NC(=O)CN2CCN(c3ncccn3)CC2)cc1,"inconclusive: 11.2 µM [inhibitor, partial curve, poor fit]",
O=C(COc1cccc2c1CCN(Cc1ccc(Br)cc1)C2=O)NCc1ccco1,"inconclusive: 89.1 µM [inhibitor, single point]",
Cc1ccc(-n2cc(-c3ccc([N+](=O)[O-])cc3)[nH]c2=S)c(C)c1,"inconclusive: 22.4 µM [inhibitor, single point]",
CN1\C(=C/C=C/C=C/C=[N+](C)C)C(C)(C)c2ccccc21,active: 11.2 µM,
NC(=O)[C@H](Cc1cc2ccccc2s1)NC(=O)[C@@H]1CC2(CC(c3cccc(NC(=O)[C@@H]4CCC(=O)N4)c3)=NO2)CN1C(=O)/C=C/Sc1ccccc1 (some centres undefined),"inconclusive: 44.7 µM [inhibitor, partial curve, poor fit]",
O=C(Cn1nnc2ccccc21)c1ccccc1,"inconclusive: 0.794 µM [inhibitor, partial curve, poor fit]",
COc1ccc(C(O)c2nc3ccccc3n2C(C)C)cc1 (centres undefined),"inconclusive: 0.398 µM [inhibitor, partial curve, poor fit]",
CC1(C)Cc2c(sc(NC(=O)C(=O)N3CCN(CCO)CC3)c2C(N)=O)CO1,"inconclusive: 89.1 µM [inhibitor, single point]",

Compound,Potency,"activity, negative = inhibition"
CCCn1c(=O)c2c(nc3n2CCCN3Cc2ccccc2)n(C)c1=O,"inconclusive: 89.1 µM [inhibitor, single point]",
O=C(NNS(=O)(=O)c1ccc(Cl)cc1)c1sccc1-n1cccc1,"inconclusive: 79.4 µM [inhibitor, single point]",
COc1cc(/C=N/NC(=S)Nc2cccc(C(=O)O)c2)ccc1O,"inconclusive: 89.1 µM [inhibitor, single point]",
CCCn1cc(CN2CCC(n3nccc3NC(=O)c3ccc4c(c3)OCO4)CC2)c(C)n1,,inactive: 8.33% [at 102 µM]
COc1cc2ccccc2cc1C(=O)N1CCc2ccccc21,"inconclusive: 1.58 µM [inhibitor, full curve, poor fit]",
c1cc(NC2CC2)nc(-c2ccoc2)n1,,inactive: -0.178% [at 0.501 µM]
Cc1n[nH]c(C)c1S(=O)(=O)N1CCCC(C(=O)Nc2ccc3c(c2)OCCO3)C1 (centres undefined),"inconclusive: 3.55 µM [inhibitor, partial curve, poor fit]",
O=[N+]([O-])c1ccc(-c2csc(Nc3ccccc3)[n+]2Cc2ccccc2)cc1,"inconclusive: 28.2 µM [inhibitor, single point]",
CCOc1ccc(CC(=O)N/N=C/c2cccnc2)cc1OCC,"inconclusive: 12.6 µM [inhibitor, partial curve, poor fit]",
Oc1c(Cl)cc(Cl)cc1C(C#Cc1ccccc1)N1CCOCC1 (centres undefined),"inconclusive: 10 µM [inhibitor, partial curve]",
CC(C)CNC(=O)NC1(C(F)(F)F)Oc2ccccc2O1,"inconclusive: 89.1 µM [inhibitor, partial curve, poor fit]",
Cc1cc(C)c2c(N)c3ccccc3nc2n1,active: 50.1 µM,
CCOC(=O)c1c(NC(=O)COc2cccc(C)c2C)sc2c1CCC(CC)C2 (centres undefined),,inactive: -1.26%
CC(=O)c1ccc(N2CCN(C(=O)Cn3c(=S)[nH]c4ncccc4c3=O)CC2)cc1,"inconclusive: 89.1 µM [inhibitor, single point]",
CSc1ncc(C(=O)Nc2ccc(C)cc2C)c(C)n1,"inconclusive: 2 µM [inhibitor, partial curve, poor fit]",
CS(=O)(=O)C1=NSC2=NC(=O)/C(=C\c3ccc(OC(=O)c4ccco4)c(Br)c3)C(=N)N21,active: 20 µM,
O=C(NCc1cccc(F)c1)c1ccc(NC(=O)c2nsc3ccccc23)cc1,,inactive: 2.1%
Cc1nc2ccccc2n1C1CCN(C(=O)Nc2ccccc2)CC1,"inconclusive: 70.8 µM [inhibitor, partial curve, poor fit]",
CCCCS(=O)(=O)c1oc(-c2ccc(F)cc2)nc1S(=O)(=O)c1ccc(C)cc1,,inactive: -2.32%
O=S(=O)(Nc1ccccc1O)c1ccc(-c2ccccc2)cc1,"inconclusive: 89.1 µM [inhibitor, single point]",
COc1ccc(OCc2cc(C(=O)NCCN3CCCc4ccccc43)no2)c(Cl)c1,"inconclusive: 15.8 µM [inhibitor, single point]",
O=C(c1cccc(Cl)c1)N1CCC(N2CCC(C(=O)N3CCCC3)CC2)CC1,,inactive: 76.3%
CCC12CN3CCN(CC(C3)/C1=N\NC(=O)c1ccc(F)cc1)C2,,inactive: 31.1%

Compound,Potency,"activity, negative = inhibition"
O=C(c1ccc2c(c1)OCO2)N1CCN(S(=O)(=O)c2ccc(Cl)cc2)CC1,,inactive: -3.77%
CCN(CC)c1ccc(/C=C/C(=O)C2C(=O)C=C(C)OC2=O)cc1 (centres undefined),"inconclusive: 0.891 µM [inhibitor, full curve]",
Cc1ccc2nc3c(cc(C(=O)NCC4CCCO4)c(=N)n3CCCOC(C)C)c(=O)n2c1 (centres undefined),active: 56.2 µM,
Cc1cc(NS(=O)(=O)c2ccc(NC(=O)/C=C/c3ccccc3Cl)cc2)no1,"inconclusive: 4.47 µM [inhibitor, partial curve, poor fit]",
COc1ccc(NC(=O)/C(C#N)=C/c2ccc(OCCN3CCOCC3)c(OC)c2)c(OC)c1,"inconclusive: 89.1 µM [inhibitor, single point]",
Cc1oc(-c2cccc(Cl)c2)nc1CS(=O)(=O)CC(=O)NC1CCCC1,"inconclusive: 89.1 µM [inhibitor, single point]",
CC(=O)Nc1cccc(N2C(=O)CC(N3CCC(C(=O)N4CCCCC4)CC3)C2=O)c1 (centres undefined),,inconclusive: -78.9% [inhibitor]
Cc1ccc2[nH]c(C(=O)N3CCN(C=O)CC3)cc2c1,"inconclusive: 89.1 µM [inhibitor, single point]",
COc1cc([N+](=O)[O-])ccc1NC(=O)CSc1nc2ccccc2n1-c1ccccc1,"inconclusive: 3.55 µM [inhibitor, full curve, poor fit]",
O=S(=O)(Nc1nc2ccccc2nc1NCC1CCCO1)c1cccs1 (centres undefined),"inconclusive: 50.1 µM [inhibitor, partial curve, poor fit]",
Cc1ccc(OCCOCCN2CCCC2)c(Br)c1,active: 35.5 µM,
CCn1c(CC(=O)Nc2ccccc2Cl)nnc1SCC(=O)NC1CCCC1,"inconclusive: 5.62 µM [inhibitor, partial curve, poor fit]",
Cc1ccc(CNC(=O)CC2Oc3ccc(Cl)cc3NC2=O)cc1 (centres undefined),,inactive: -27.6%
CCn1c(SCC(=O)Nc2ccc3c(c2)OCCO3)nnc1-c1cccnc1,,inactive: 0.0062% [at 102 µM]
Cn1c(=O)c2c(nc(NN=C3CCCC3)n2C)n(C)c1=O,active: 39.8 µM,
O=C(O)c1ccc(-c2nc(-c3ccccc3)c(-c3ccccc3)[nH]2)cc1,,inactive: -2.23%
CCn1c2ccccc2c2nnc(SCCCn3c(=O)[nH]c4ccccc43)nc21,"inconclusive: 0.708 µM [inhibitor, full curve]",
C/C(N)=C(/C#N)C(=O)CN1C(=O)NC(Cc2c[nH]c3ccccc23)C1=O (centres undefined),"inconclusive: 89.1 µM [inhibitor, single point]",
CC(=O)c1ccc(S(=O)(=O)N2CCN(C(=O)CSc3ccc(F)cc3)CC2)cc1,,inactive: -14.9% [at 102 µM]
Cc1nn(C)cc1CN(C)C(=O)c1ccc(OC2CCN(Cc3ccccn3)CC2)cc1,,inconclusive: -133% [inhibitor]
COc1cc(C2C(C(=O)c3ccco3)=C(O)C(=O)N2CC2CCCO2)ccc1O (centres undefined),active: 50.1 µM,
Cc1ccc2c(c1)c1c(n2CC(O)CN2CCCCCC2)CCCC1 (centres undefined),"inconclusive: 79.4 µM [inhibitor, single point]",
CCS(=O)(=O)N1CC(=O)N(c2ccc(Cl)cc2)C(C)(C(=O)NC2CCCCC2)C1 (centres undefined),,inactive: 1.86%
